Assay results as given in the supplement of paper PMC11417369.
± gives the standard deviation of the averaged measurements. The list shows a part of the results.

Tested on: PfAP2-G AP2 domain (GST-tagged)
Experiment: gcPBM binding intensity (ln(normalized median fluorescence intensity)); higher = stronger DNA binding
How it was run: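 In this array assay, P. falciparum DNA-binding domains with a GST tag, expressed in E. coli, were applied for 1 h to primer-extended double-stranded 36-bp intergenic genomic probes and negative controls on an Agilent 4 × 180k array. Bound protein was visualised with Alexa488 anti-GST antibody at 488 nm. Binding intensity is the highest Masliner-normalised natural-log median intensity across replicate spots of either probe orientation.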

Row | Sequence | gcPBM binding intensity (ln)
1 | GAATTATAAGAATAAACACACAAGCTTAAAAAAAAA [CACACA_site1204] | 9.74 ± 0.18
2 | AGAATTCAACAATGTTGTACATACACACACACAAAA [XGTACX_site5035] | 11.3 ± 0.8
3 | ATATGGCATATTTGTATTATACATACATATGTATCT [TGCATGCA_negctrl_site562] | 10.1 ± 0.31
4 | AAATTATAATATAATACACACATAAAAAAAAAAAAA [CACACA_site7] | 9.79 ± 0.38
5 | TTATTATTCAAGAGGAGTACATTATGTGTATAATAT [XGTACX_site4995] | 11.5 ± 1
6 | TATATTTAGAGAGAGACACACAAAGGGACTTACACA [CACACA_site2545] | 10.5 ± 0.3
7 | ATGTATTTATTTTAACGTACAAGATATTATTATTAT [XGTACX_site4609] | 11.1 ± 0.83
8 | AAATTATATATGATGTGTACATAAATATATACACAT [XGTACX_site8761] | 11.4 ± 0.83
9 | TTTCCCTCAAATAAAGTGCATTATGATTTTAATTTA | 9.84 ± 0.12
10 | CTAATTGTGTATACCTGTACATATATATATATATAT [XGTACX_site416] | 11 ± 0.53
11 | TGTTATTCTACATATACACACAAATAACAATTTAAA [CACACA_site1824] | 10 ± 0.21
12 | AAAAAAAAAAAGAACACACACAGTGCACATTCGGTG [CACACA_site788] | 10.6 ± 0.26
13 | AATACAAAAAAAGGTACACACATAATATATTTATTA [CACACA_site2628] | 11.3 ± 0.87
14 | TTAACTTTTTTATATGCACACATAAACAAGGATATA [CACACA_site8932] | 10.2 ± 0.28
15 | ATAATATATATATATATATTATCAAATATATATATA [GTGCAC_negctrl_site346] | 9.55 ± 0.23
16 | TCCACTTAACTCAATTGTACAAAAATAAAAATTAAA [XGTACX_site855] | 10.9 ± 0.67
17 | TTTTATGCGCAATAAGTGCATTTAAAATATATATAT | 10.2 ± 0.31
18 | GTAATATGTATCCATACACACATACAGTTTATTTGC [CACACA_site6540] | 10.3 ± 0.27
19 | TGTGTATATCGATAAAGTACATTTGAAAAGTGACTT [XGTACX_site6957] | 11.1 ± 0.69
20 | TTTTTATATTTTACATGTACATAAATATATTATATA [XGTACX_site958] | 11.4 ± 0.82
21 | AATAATGAATTGAAATGTACATATTTTTATTAATAC [XGTACX_site8899] | 11 ± 0.42
22 | ATCACCAAATGGGCTATACAACAATGAGAAATGGTA [CACACA_negctrl_site48] | 10.1 ± 0.18
23 | TTCACATGAAGAATTAAAATAAAACTAGGAAATTAA [CACACA_negctrl_site1047] | 9.72 ± 0.13

Row | Sequence | gcPBM binding intensity (ln)
24 | AAAAAAAACGGACACACACACATTCAATATAAAACA [CACACA_site4189] | 11.3 ± 0.96
25 | GTATTAATATATAATTGTACTTTTTTTTTTTTTTTT [XGTACX_site4369] | 11.6 ± 1
26 | TTTTTCATAAAACACACACACAAAAATAATGTGGAA [CACACA_site3687] | 10.2 ± 0.18
27 | AATATAATATAATATAGTACGTAAAAATATTATACA [XGTACX_site2170] | 11.2 ± 0.91
28 | ATACGAAGAAATGTTCATTTATTTCGAACATTTAAT [CACACA_negctrl_site1481] | 9.735 ± 0.064
29 | AATAATATATGGACATGTACATAATATATATTTTTT [XGTACX_site312] | 11.2 ± 0.56
30 | TCAAATGTGTAATCTTGTACACATTAAAAGAAAAAA [XGTACX_site8822] | 11.2 ± 0.83
31 | TTCATATAATTCATCTGTACATATTGATAGTATGCA [XGTACX_site6386] | 10.9 ± 0.54
32 | TGTTTTATTTATTAAGCACACGCGATTTAAAAAATA [CACACA_site981] | 10 ± 0.19
33 | AAAAAAACACACACATATATATATATATATATATAT [GTGCAC_negctrl_site498] | 10.3 ± 0.9
34 | TTTGTTCTTTTTGAAGTGCACTGAAATATAACAAAA | 10.5 ± 0.55
35 | AAGAAAAAGAATAACCTTATTTCTATATACTAATTT [TGCATGCA_negctrl_site477] | 9.62 ± 0.18
36 | ATCAAAATTGTCATTACACACCTTTATTTTTATAAT [CACACA_site5071] | 10.3 ± 0.18
37 | ATAGTAATAGAATGATTGCACTTAAATTTTCCCTCT | 9.87 ± 0.057
38 | GTATACATATTTATAATAATAAATGTCTTATATTTT [CACACA_negctrl_site688] | 9.755 ± 0.021
39 | ATAATTAATGATGTATGTACGGAATTTATATATTTG [XGTACX_site5685] | 11 ± 0.54
40 | TATCTTATATATAAGTGTACGCAGATTCTTACGATA [XGTACX_site6058] | 11.5 ± 1
41 | TAATATATTAATATATGTACGTATTTTTATTAATAT [XGTACX_site5346] | 11.6 ± 0.93
42 | TTAAATAATTCTTTTAGTACACACGAATAAGCAGAT [XGTACX_site623] | 11.2 ± 0.78
43 | CATACATACAAACACACACACATATATATACATACA [CACACA_site852] | 10.2 ± 0.34
44 | ATATATATATATATATGTACATATGTCAACTGTCTA [XGTACX_site8636] | 11.2 ± 0.44
45 | CACAGACACGGACACACACACACACCCAGACACATA [CACACA_site4357] | 11.3 ± 0.86
46 | CATATACACGAACACACACACACACGCACAAAAAAA [CACACA_site6376] | 10.6 ± 0.51

Row | Sequence | gcPBM binding intensity (ln)
47 | TATGTATTAATGAGAACATGCAAAATAATAAACAAT [TGCATGCA_site362] | 10.2 ± 0.13
48 | ATATATCAAATAGACAAACACACAAAGGAAGAGTGA [CACACA_site3922] | 10.01 ± 0.035
49 | CATATAAAAATGTGCACACACACACCGATATATATT [CACACA_site4940] | 10.5 ± 0.3
50 | CCACAGGATTGGTTCAAACACACATATTATATGACT [CACACA_site661] | 10.21 ± 0.014
51 | TATTTTTTTTTTTTTTGTACACATAATTGTAATCGT [XGTACX_site8415] | 11.3 ± 0.84
52 | TCACTTTTTATTAAATGTACATGCTTTCATTTTCAT [XGTACX_site8139] | 10.9 ± 0.52
53 | GAATAAATAATTAACACACACAATCTTTTTTTTTTT [CACACA_site3140] | 9.61 ± 0.11
54 | TATATATATATATATGTACACACATCAATCATATTA [CACACA_site8594] | 11.3 ± 0.76
55 | AAAAAAAAAATAAAATAAAATATATTATATATATTA [GTGCAC_negctrl_site431] | 9.12 ± 0.25
56 | TATATATATATATATACACACTTGTGCAGAATATTA [CACACA_site5257] | 10.1 ± 0.29
57 | TGTACGAGTCGTAGAGTGCAGTCTGGAGAAAAGTAC [GTGCAC_site9683] | 11.2 ± 0.76
58 | AATAATGAAAAAATGAATAAAATTACTATATAATTC [XGTACX_negctrl_site457] | 9.73 ± 0.17
59 | GATATGATGTGTTTGGTAGTTTTTGATGTTGGCATG [GTGCAC_negctrl_site506] | 10.09 ± 0.042
60 | AAATAAATAAATAGACGTACAAAAATATTATACATT [XGTACX_site6776] | 11.2 ± 0.8
61 | GTAAATAATAAACACCGTACATGGTATAATTCAATG [XGTACX_site3655] | 10.7 ± 0.33
62 | TATAAATGTGTATGCGCATGTAAAAATATAATTTAT [TGCATGCA_site750] | 10.21 ± 0.078
63 | TATAAATTTATATATGCATGTCAGAAAAAAAAGTAA [TGCATGCA_site414] | 10.055 ± 0.007
64 | CAACAAAATAAACACACACACACAAACACAAAAAAA [CACACA_site5806] | 10.3 ± 0.27
65 | GAACTCATTACAAAGTGTACAAATTAAATAAATGGT [XGTACX_site3995] | 11.1 ± 0.43
66 | TTTTTCTTATTTGGATTGCACTACATATATATATAT | 10.6 ± 0.47
67 | AGGTGCTTAATATATACACACATACAGATATATATA [CACACA_site5552] | 10.02 ± 0.085
68 | ATAAGGTTACAACAAACACACAAAGGAATATACACA [CACACA_site7840] | 10.2 ± 0.21
69 | AAAATTTTTTGAAATAGTACTTTTTTATATATATAT [XGTACX_site2634] | 11.2 ± 0.62

Row | Sequence | gcPBM binding intensity (ln)
70 | GGATATTAATAAATATGTACATATGTAGATTTATTA [XGTACX_site554] | 11.1 ± 0.67
71 | ATATATAAATATATATGTACATAAATATATATCTTT [XGTACX_site6910] | 11.2 ± 0.67
72 | AAGAAAAAAAAAAAAACACACATATATATATATATA [CACACA_site2027] | 9.93 ± 0.57
73 | TGTATACCTTAATATACACACATACCTATATTTATA [CACACA_site6746] | 9.905 ± 0.035
74 | TATAAATAGAGGAAGCGTACATATATATATATATAT [XGTACX_site4993] | 11.3 ± 1
75 | ACAAAAAATTAATGAGAAATGGAATAATAAGTTATA [GTGCAC_negctrl_site321] | 9.875 ± 0.021
76 | TAAAGTTTTTCCTATCTATATTTATATTATAAATGA [XGTACX_negctrl_site20] | 9.81 ± 0.071
77 | TATGATTTTAATGAAACACACAATTTTATGTTAATA [CACACA_site311] | 9.82 ± 0.11
78 | TATAAAGGTATACAAAGTACAAAATACATATATACT [XGTACX_site6431] | 10.7 ± 0.49
79 | GTGAGTGAAATATGCAAACACACACCCGAAAAATGT [CACACA_site3197] | 10.14 ± 0.049
80 | TGAAGTATAATTTATCTAATATGTTATATTTTATTT [TGCATGCA_negctrl_site56] | 9.38 ± 0.18
81 | TGTGTATAAGTCACTTGTACTAGTAGTAAAAAAAAA [XGTACX_site4341] | 11.2 ± 0.88
82 | TAATATATGTTATATACACACATATAAATATAAATA [CACACA_site6339] | 9.94 ± 0.18
83 | TCTTATAAACTCTGCACACATAATATATTAAATGAG [CACACA_site1936] | 10.1 ± 0.22
84 | AATATAGGTATATCCACACACATATTTATATTTATA [CACACA_site6867] | 9.93 ± 0.028
85 | TTTAATATTATTATTTTACACACTTTTTTCCTTTTA [CACACA_site8780] | 9.9 ± 0.11
86 | CAAATAATATTATGAAGTACTTCAAATTTTGAAAGA [XGTACX_site2530] | 11.3 ± 0.72
87 | AGATAATAGGTTACTTGTACATATAAATAAATATAT [XGTACX_site158] | 11.1 ± 0.67
88 | GTAGTGGTTGAATATACACACATATATATATATATA [CACACA_site2651] | 10.1 ± 0.23
89 | AACGTGTATTTATATTGTACACATTCATACATCAAA [XGTACX_site3644] | 11.4 ± 0.95
